# Results published in publication PMC4336329 (PLoS ONE, 2015).
# Hit rate of the full screen: of about 310,000 compounds, about 14,000 (4.5%) showed an effect of 50% or more. The effect is printed as a negative number. The list shows a part of the results.
# Molecular target: human ether-à-go-go-related gene (hERG) potassium channel (human, UniProt Q12809)
# Assay: primary screen, population patch clamp on CHO cells stably expressing hERG
# 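Further: peak tail current of the secondary pulse compared with the same well before compound.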
# Sequence of human ether-à-go-go-related gene (hERG) potassium channel (Q12809 whole entry, looked up): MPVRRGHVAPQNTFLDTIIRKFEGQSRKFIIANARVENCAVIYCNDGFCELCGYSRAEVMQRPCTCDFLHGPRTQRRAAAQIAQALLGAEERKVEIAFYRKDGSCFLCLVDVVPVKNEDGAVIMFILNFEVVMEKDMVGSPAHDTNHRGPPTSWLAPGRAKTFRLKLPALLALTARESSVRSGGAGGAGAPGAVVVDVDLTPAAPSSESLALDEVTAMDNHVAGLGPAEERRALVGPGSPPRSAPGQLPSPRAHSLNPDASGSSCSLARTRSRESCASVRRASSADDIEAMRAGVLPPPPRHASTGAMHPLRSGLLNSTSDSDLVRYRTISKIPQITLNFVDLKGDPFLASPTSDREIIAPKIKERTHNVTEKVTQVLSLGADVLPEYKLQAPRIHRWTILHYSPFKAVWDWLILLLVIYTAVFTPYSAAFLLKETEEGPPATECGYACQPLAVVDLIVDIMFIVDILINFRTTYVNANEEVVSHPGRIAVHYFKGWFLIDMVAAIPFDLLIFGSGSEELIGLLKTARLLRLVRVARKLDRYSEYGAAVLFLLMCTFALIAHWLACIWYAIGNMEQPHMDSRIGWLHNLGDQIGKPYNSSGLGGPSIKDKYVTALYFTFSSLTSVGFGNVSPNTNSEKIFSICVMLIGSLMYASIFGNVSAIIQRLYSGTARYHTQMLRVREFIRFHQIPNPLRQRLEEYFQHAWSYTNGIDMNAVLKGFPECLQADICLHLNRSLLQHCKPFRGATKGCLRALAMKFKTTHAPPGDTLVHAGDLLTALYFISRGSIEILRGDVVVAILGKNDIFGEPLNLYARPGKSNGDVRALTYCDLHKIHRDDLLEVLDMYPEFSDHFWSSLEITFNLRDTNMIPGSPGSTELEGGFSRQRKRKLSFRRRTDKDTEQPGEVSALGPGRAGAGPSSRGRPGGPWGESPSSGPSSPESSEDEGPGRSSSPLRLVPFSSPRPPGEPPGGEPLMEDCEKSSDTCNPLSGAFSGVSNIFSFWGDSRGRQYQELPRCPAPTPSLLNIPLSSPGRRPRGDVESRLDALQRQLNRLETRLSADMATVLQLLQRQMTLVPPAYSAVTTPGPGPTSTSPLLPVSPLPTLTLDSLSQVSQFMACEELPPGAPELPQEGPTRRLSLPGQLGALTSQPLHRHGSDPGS
row,SMILES,"hERG current change (%, negative = inhibition) at 10uM [%]"
1,Cc1sc2ncnc(Oc3ccc(-n4ccnc4)cc3)c2c1C,-68.4
2,CS(=O)(=O)O.O.Oc1ccc2c3c1O[C@H]1c4oc5ccccc5c4C[C@@]4(O)[C@@H](C2)N(CC2CC2)CC[C@]314,-76.9
3,O=C(N1CCOCC1)N1CCC(NC(=O)C23CC4CC(CC(C4)C2)C3)CC1,24.8
4,COc1ccc(C(=O)N2CCN(c3ccc(F)cc3)CC2)cc1S(=O)(=O)NC1CC1,-59.2
5,Cc1ccccc1NC(=S)N1CCOCC1,7.34
6,Nc1nonc1-c1noc(-c2ccccc2)n1,15.7
7,Cc1cnc(C(=O)NCCc2ccc(Cl)cc2)cn1,-15.8
8,Cc1cccc(S(=O)(=O)Nc2nc3ccccc3nc2NCc2ccco2)c1,-0.911
9,Cc1csc(NC(=O)C2CC(=O)N(Cc3ccco3)C2)n1 (stereo not shown),20.8
10,Cc1ccc(-c2[nH]nc3c2C(c2ccoc2)C(C#N)=C(N)O3)cc1C (stereo not shown),1.83
11,CC(=O)Oc1cccc(N2C(=O)c3ccc(C(=O)Nc4c[nH]c(=O)[nH]c4=O)cc3C2=O)c1,23.1
12,COc1ccc(NC(=O)C(=O)NCCN2CCN(C(=O)C(c3ccccc3)c3ccccc3)CC2)cc1,-20.8
13,CC(C)C(OC(=O)c1cccs1)C(=O)NC1CCCCC1 (stereo not shown),-13.8
14,COc1nc(-c2ccccc2)ccc1-c1noc(-c2ccccc2F)n1,25.7
15,O=C(NCc1ccccc1)C1=C[C@@H](c2coc3ccccc3c2=O)C[C@@H](OCc2ccc(CO)cc2)O1,-33.7
16,COc1c(Cl)cc(Cl)cc1C(=O)Nc1ccc(CN2CCCCC2)cc1,-65.1
17,COC(=O)[C@@]1(Cc2ccc(OC)cc2)[C@@H]2[C@@H](CC(=O)[C@H]2CC(=O)C(=O)N(C)C)CN1C(=O)c1ccccc1,-42.2
18,Cn1c(=O)[nH]c(=O)c2c1nc(CN1CCN(c3ccccc3F)CC1)n2CCc1ccccc1,-13.4
19,O=C(NCC1CCCCC1)c1cccc(-c2ccc(O)cc2)c1,12.1
20,COc1ccc(CCC(=O)Nc2cc(Cl)ccc2OC)cc1,-13.3
21,COc1ccccc1CC(=O)Nc1ccc(OC)c(OC)c1,13.9
22,Cc1nn(C)c(C)c1CN(C)S(=O)(=O)c1ccc2ccccc2c1,-30.4

row,SMILES,"hERG current change (%, negative = inhibition) at 10uM [%]"
1,O=C1CCn2nc(-c3ccc(Cl)cc3)cc2N1,-7.37
2,O=C1NC(c2ccc(Cl)cc2)Nc2ccccc21 (stereo not shown),-23.5
3,O=C(CSc1ccc(C(F)(F)F)cn1)Nc1ccccc1,-0.305
4,CCc1ccc(-c2cc(C)no2)cc1S(=O)(=O)N1CCN(c2ccc(F)cc2)CC1,7.09
5,Cc1cccc(OCC(=O)N2CCN(Cc3ccc4c(c3)OCO4)CC2)c1.O=C(O)C(=O)O,-16.7
6,O=C(CN1CCCCCC1)NCc1ccccc1,10.1
7,O=C(N/N=C/c1ccccc1[N+](=O)[O-])c1cnccn1,17.8
8,COc1cccc(/C=N/NC(=O)c2cnccn2)c1O,-17.1
9,O=C1NC(=O)/C(=C\c2ccc(OCc3cnc(Cl)s3)cc2)S1,19.9
10,Cc1ccc(/C=C2\SC(=S)N(c3cccnc3)C2=O)cc1,18.9
11,CCOC(=O)c1cc(-c2ccc([N+](=O)[O-])cc2)nc2c1c(=O)[nH]c(=O)n2Cc1ccccc1,11.9
12,COc1cc(-c2nnc(COc3ccc4cc(Br)ccc4c3)o2)cc(OC)c1OC,16.2
13,COc1ccc(CNC(=O)C2CCN(C(=O)Cc3ccccc3)CC2)cc1,-13.5
14,O=C(COc1ccc(F)cc1Cl)Nc1cccc(S(=O)(=O)N2CCCCCC2)c1,9.05
15,C/C(N)=C(/C#N)C(=O)COC(=O)CC12CC3CC(CC(C3)C1)C2,-8.16
16,O=[N+]([O-])c1ccc(CSc2nnc(SCc3ccccc3)s2)cc1,-19.2
17,O=C(Nc1ccc(-c2nnc(-c3ccccc3)o2)cc1)C1CCCO1 (stereo not shown),-13.3
18,Cc1ccc(SC(C)C(=O)Nc2ccccc2-c2ccccc2)cc1 (stereo not shown),2.2
19,Cc1ccc(CNC(=O)C2CCCN(S(=O)(=O)c3c(C)noc3/C=C/N(C)C)C2)cc1 (stereo not shown),0.141
20,CCCN(CC1CC1)C(=O)CSc1ncnc2sc(C)c(C)c12,-30.4
21,CCCn1c(N)c(N(CCOC)C(=O)c2ccccc2F)c(=O)[nH]c1=O,9.64
22,Nc1ccc(C(=O)N/N=C/c2ccccc2)cc1,7.02

row,SMILES,"hERG current change (%, negative = inhibition) at 10uM [%]"
1,CC(C)c1cc(C(C)C)c(S(=O)(=O)N2CCNCC2)c(C(C)C)c1,-0.58
2,COCCCn1c(=O)c2sccc2n2c(CCCC(=O)NCc3ccc(OC)cc3)nnc12,-21
3,COc1ccc(Cl)cc1Nc1nc(C)nc2c1nnn2Cc1ccccc1,11.6
4,CS(=O)(=O)NCCCNc1c(Cl)cccc1[N+](=O)[O-],-4.43
5,CC(C)=CCc1c(O)cc2c(c1O)C(=O)CC(c1ccccc1)O2 (stereo not shown),11.7
6,COc1ccc(CNC(=O)c2cc(SC)ccc2Cl)cc1OC,2.15
7,COc1cc(OC)c2cc(C(=O)N/N=C/c3ccccc3O)[nH]c2c1,6.07
8,CCCOc1ccc(NC(=O)C2CC(=O)N3CCCN=C3S2)cc1 (stereo not shown),-11
9,O=C(COC(=O)COc1ccccc1)NCc1ccco1,-8.6
10,CCOC(=O)N1CCN(C(=O)C2CCC(=O)N(Cc3ccc(Cl)cc3)C2)CC1 (stereo not shown),-40.5
11,Cc1[nH]c2ccccc2c1C(=O)CSC(=S)N1CCOCC1,9.65
12,COc1ccc(/C=C\C(=O)NCC(=O)N/N=C/c2ccc(O)cc2O)cc1,5.16
13,CC(C)(C)C1CCC2(CC1)NC(=S)N(c1ccccc1)N2 (stereo not shown),-12
14,O=C(N/N=C/c1ccc([N+](=O)[O-])o1)c1ccncc1,-11.2
15,Cc1ccc2c(c1)C(=O)c1ccccc1CS2=O (stereo not shown),-31.2
16,O=C(NNC(=O)c1ccncc1)Nc1cccc([N+](=O)[O-])c1,14.4
17,N=c1c2c3c(sc2nc2n1CCCCC2)CCCC3,-45.2
18,C=CCN(C(=O)c1csnn1)C(C(=O)NCc1ccc(F)cc1)c1ccccc1 (stereo not shown),-10
19,COc1ccc(C)cc1S(=O)(=O)Nc1cc2c3c(c1)CC(=O)N3CCC2,-10.2
20,Cc1cc(C)n(-c2nc3ccccc3nc2N2CCN(C(=O)c3ccc(F)cc3)CC2)n1,-20.6
21,COC(=O)c1nn(-c2nc(-c3cccc(OC)c3)cc(C(F)(F)F)n2)cc1[N+](=O)[O-],9.02
22,O=C(Cn1c(=O)oc2cc(S(=O)(=O)N3CCCC3)ccc21)N1CCN(C2CCCCC2)CC1,-7.45

row,SMILES,"hERG current change (%, negative = inhibition) at 10uM [%]"
1,S=c1[nH]nc(-c2ccc(Br)cc2)n1-c1ccc(Br)cc1,12.2
2,CC(=O)Nc1ccc(NC(=O)C(C)N(C)CC(=O)Nc2ccccc2Br)cc1 (stereo not shown),8.29
3,COc1cc(CNCc2cc(OC)c(OC)c(OC)c2)cc(OC)c1.O=C(O)C(=O)O,1.64
4,O=C(Oc1ccc2ccc(O)cc2c1)C1CCCCC1,16.7
5,CSc1nc(C)cc(-n2ccc(=O)[nH]c2=O)n1,-3.54
6,Cc1cc(C)n2c(SCc3ccccc3Cl)nnc2n1,6.96
7,Cc1cc(C)cc(N(CC(=O)NC2CCCCC2)C(=O)CCCC(=O)Nc2ccccn2)c1,3.04
8,COc1ccc(N2CCN(C3CCCN(Cc4ccc(F)cc4Cl)C3)CC2)cc1 (stereo not shown),-35.2
9,Cc1c(Cl)c(=O)n2c(=O)c(Cl)c(C)n12,2.68
10,CC(C)c1cccc(C(C)C)c1NC(=O)CNCC(O)c1ccccc1.O=C(O)C(=O)O (stereo not shown),2.04
11,Cn1c(SCC(=O)Nc2ccc(C(N)=O)cc2)nnc1-c1cccs1,23.2
12,CC1CC2(O)c3no[n+]([O-])c3CCC2N1O (stereo not shown),5.85
13,CSc1ncc(CN2CCc3c([nH]c4ccccc34)C2C(C)(C)C)cn1 (stereo not shown),8.9
14,NNC(=S)Nc1c(F)cc(F)cc1Br,13.9
15,O=C(C1COc2ccccc2O1)N1CCOCC1 (stereo not shown),10.5
16,COc1ccc(NCC(=O)N/N=C/c2ccc3c(c2)OCCO3)cc1,10.8
17,Cc1ccc(S(=O)(=O)NCC(=O)N2CCOCCOCCOCCOCC2)cc1,29.1
18,O=C(CCC(=O)N1CCOc2ccccc21)NCCc1ccccc1,-6
19,COc1ccc(C(=O)Nc2cc(C)nn2-c2cccc(F)c2)cc1OC,5.04
20,Cc1cn(CCC(=O)Nc2ccccc2N2CCOCC2)c2ccccc12,-10.1
21,CC1Oc2ccccc2N(CC(=O)Nc2ccc3c(c2)OCCO3)C1=O (stereo not shown),-5.7
22,COc1ccc2nc(NC(=O)CSc3nc(C)cc(=O)[nH]3)sc2c1,2.03
